Experimental data published in the supplement of paper PMC12423691.
The list shows a part of the results. Binding of human transcription factors and regulators to the viral nucleoprotein by AlphaScreen, crude cell-free proteins, amounts not normalised, one pass. Fold of the Venus control; higher = more signal. No active / inactive call. Single-pass screen; sequences are the whole Swiss-Prot entries looked up by name.

B1: VAV1, P15498 (protein)
chain: MELWRQCTHWLIQCRVLPPSHRVTWDGAQVCELAQALRDGVLLCQLLNNLLPHAINLREVNLRPQMSQFLCLKNIRTFLSTCCEKFGLKRSELFEAFDLFDVQDFGKVIYTLSALSWTPIAQNRGIMPFPTEEESVGDEDIYSGLSDQIDDTVEEDEDLYDCVENEEAEGDEIYEDLMRSEPVSMPPKMTEYDKRCCCLREIQQTEEKYTDTLGSIQQHFLKPLQRFLKPQDIEIIFINIEDLLRVHTHFLKEMKEALGTPGAANLYQVFIKYKERFLVYGRYCSQVESASKHLDRVAAAREDVQMKLEECSQRANNGRFTLRDLLMVPMQRVLKYHLLLQELVKHTQEAMEKENLRLALDAMRDLAQCVNEVKRDNETLRQITNFQLSIENLDQSLAHYGRPKIDGELKITSVERRSKMDRYAFLLDKALLICKRRGDSYDLKDFVNLHSFQVRDDSSGDRDNKKWSHMFLLIEDQGAQGYELFFKTRELKKKWMEQFEMAISNIYPENATANGHDFQMFSFEETTSCKACQMLLRGTFYQGYRCHRCRASAHKECLGRVPPCGRHGQDFPGTMKKDKLHRRAQDKKRNELGLPKMEVFQEYYGLPPPPGAIGPFLRLNPGDIVELTKAEAEQNWWEGRNTSTNEIGWFPCNRVKPYVHGPPQDLSVHLWYAGPMERAGAESILANRSDGTFLVRQRVKDAAEFAISIKYNVEVKHIKIMTAEGLYRITEKKAFRGLTELVEFYQQNSLKDCFKSLDTTLQFPFKEPEKRTISRPAVGSTKYFGTAKARYDFCARDRSELSLKEGDIIKILNKKGQQGWWRGEIYGRVGWFPANYVEEDYSEYC
B2: HOXD3, P31249 (protein)
chain: MLFEQGQQALELPECTMQKAAYYENPGLFGGYGYSKTTDTYGYSTPHQPYPPPAAASSLDTDYPGSACSIQSSAPLRAPAHKGAELNGSCMRPGTGNSQGGGGGSQPPGLNSEQQPPQPPPPPPTLPPSSPTNPGGGVPAKKPKGGPNASSSSATISKQIFPWMKESRQNSKQKNSCATAGESCEDKSPPGPASKRVRTAYTSAQLVELEKEFHFNRYLCRPRRVEMANLLNLTERQIKIWFQNRRMKYKKDQKAKGILHSPASQSPERSPPLGGAAGHVAYSGQLPPVPGLAYDAPSPPAFAKSQPNMYGLAAYTAPLSSCLPQQKRYAAPEFEPHPMASNGGGFASANLQGSPVYVGGNFVESMAPASGPVFNLGHLSHPSSASVDYSCAAQIPGNHHHGPCDPHPTYTDLSAHHSSQGRLPEAPKLTHL
B3: ZNF155, Q12901 (protein)
chain: MTTFKEAVTFKDVAVVFTEEELGLLDPAQRKLYRDVMLENFRNLLSVGHQPFHQDTCHFLREEKFWMMGTATQREGNSGGKIQTELESVPEAGAHEEWSCQQIWEQIAKDLTRSQDSIINNSQFFENGDVPSQVEAGLPTIHTGQKPSQGGKCKQSISDVPIFDLPQQLYSEEKSYTCDECGKSICYISALHVHQRVHVGEKLFMCDVCGKEFSQSSHLQTHQRVHTGEKPFKCEQCGKGFSRRSALNVHRKLHTGEKPYICEACGKAFIHDSQLKEHKRIHTGEKPFKCDICGKTFYFRSRLKSHSMVHTGEKPFRCDTCDKSFHQRSALNRHCMVHTGEKPYRCEQCGKGFIGRLDFYKHQVVHTGEKPYNCKECGKSFRWSSCLLNHQRVHSGEKSFKCEECGKGFYTNSQLSSHQRSHSGEKPYKCEECGKGYVTKFNLDLHQRVHTGERPYNCKECGKNFSRASSILNHKRLHCQKKPFKCEDCGKRLVHRTYRKDQPRDYSGENPSKCEDCGRRYKRRLNLDILLSLFLNDT

Each binder was assayed against nucleoprotein N of Crimean-Congo hemorrhagic fever virus (assay: AlphaScreen luminescence signal relative to Venus negative control (fold); higher = stronger binding to CCHFV N).
Procedure: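 AlphaScreen binding of cell-free made, FLAG-GST-tagged human transcription factors and regulators (crude translation products) to biotinylated N protein; signal as fold of the FLAG-GST-Venus control. One pass.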
Work on B1 yielded an AlphaScreen luminescence signal of 2.05. For B2, the AlphaScreen luminescence signal was 4.19. Work on B3 yielded an AlphaScreen luminescence signal of 2.74.
